{
  "source": "paper PMC9911399",
  "about": "“Two distinct binding modes provide the RNA-binding protein RbFox with extraordinary sequence specificity”",
  "binders": {"B1": {"name": "GGCCGGG (DNA:RNA)", "RNA": "GGGAGACCGGAAUUCAGAUUGUCCGGCCGGGUUAAAUCCCGUCGUAGCCACCA", "DNA 1": "CAATCTGAATTCCGGTCTCCC", "DNA 2": "TGGTGGCTACGACGGGATT"}, "B2": {"name": "GCCUAAA (DNA:RNA)", "RNA": "B1 RNA with G26C, C28U, G29A, G30A, G31A", "DNA 1": "CAATCTGAATTCCGGTCTCCC", "DNA 2": "TGGTGGCTACGACGGGATT"}, "B3": {"name": "UGAUCGA (DNA:RNA)", "RNA": "B1 RNA with G25U, C27A, C28U, G29C, G31A", "DNA 1": "CAATCTGAATTCCGGTCTCCC", "DNA 2": "TGGTGGCTACGACGGGATT"}, "B4": {"name": "GUGGCAU (DNA:RNA)", "RNA": "B1 RNA with G26U, C27G, C28G, G29C, G30A, G31U", "DNA 1": "CAATCTGAATTCCGGTCTCCC", "DNA 2": "TGGTGGCTACGACGGGATT"}, "B5": {"name": "GCAUCGC (DNA:RNA)", "RNA": "B1 RNA with G26C, C27A, C28U, G29C, G31C", "DNA 1": "CAATCTGAATTCCGGTCTCCC", "DNA 2": "TGGTGGCTACGACGGGATT"}, "B6": {"name": "UUUCCAG (DNA:RNA)", "RNA": "B1 RNA with G25U, G26U, C27U, G29C, G30A", "DNA 1": "CAATCTGAATTCCGGTCTCCC", "DNA 2": "TGGTGGCTACGACGGGATT"}, "B7": {"name": "AACCCCC (DNA:RNA)", "RNA": "B1 RNA with G25A, G26A, G29C, G30C, G31C", "DNA 1": "CAATCTGAATTCCGGTCTCCC", "DNA 2": "TGGTGGCTACGACGGGATT"}, "B8": {"name": "UAGUAAA (DNA:RNA)", "RNA": "GGGAGACCGGAAUUCAGAUUGUCCUAGUAAAUUAAAUCCCGUCGUAGCCACCA", "DNA 1": "CAATCTGAATTCCGGTCTCCC", "DNA 2": "TGGTGGCTACGACGGGATT"}, "B9": {"name": "UUUCGCC (DNA:RNA)", "RNA": "B1 RNA with G25U, G26U, C27U, G30C, G31C", "DNA 1": "CAATCTGAATTCCGGTCTCCC", "DNA 2": "TGGTGGCTACGACGGGATT"}, "B10": {"name": "UUGGUGC (DNA:RNA)", "RNA": "B8 RNA with A26U, U28G, A29U, A30G, A31C", "DNA 1": "CAATCTGAATTCCGGTCTCCC", "DNA 2": "TGGTGGCTACGACGGGATT"}, "B11": {"name": "GACAAUG (DNA:RNA)", "RNA": "B1 RNA with G26A, C28A, G29A, G30U", "DNA 1": "CAATCTGAATTCCGGTCTCCC", "DNA 2": "TGGTGGCTACGACGGGATT"}, "B12": {"name": "GUAGGGU (DNA:RNA)", "RNA": "B1 RNA with G26U, C27A, C28G, G31U", "DNA 1": "CAATCTGAATTCCGGTCTCCC", "DNA 2": "TGGTGGCTACGACGGGATT"}, "B13": {"name": "CCACUUG (DNA:RNA)", "RNA": "B1 RNA with G25C, G26C, C27A, G29U, G30U", "DNA 1": "CAATCTGAATTCCGGTCTCCC", "DNA 2": "TGGTGGCTACGACGGGATT"}, "B14": {"name": "GCUAGCA (DNA:RNA)", "RNA": "B1 RNA with G26C, C27U, C28A, G30C, G31A", "DNA 1": "CAATCTGAATTCCGGTCTCCC", "DNA 2": "TGGTGGCTACGACGGGATT"}, "B15": {"name": "GCGGUAA (DNA:RNA)", "RNA": "B8 RNA with U25G, A26C, U28G, A29U", "DNA 1": "CAATCTGAATTCCGGTCTCCC", "DNA 2": "TGGTGGCTACGACGGGATT"}, "B16": {"name": "UGCUGAU (DNA:RNA)", "RNA": "B1 RNA with G25U, C28U, G30A, G31U", "DNA 1": "CAATCTGAATTCCGGTCTCCC", "DNA 2": "TGGTGGCTACGACGGGATT"}, "B17": {"name": "CCGAGGC (DNA:RNA)", "RNA": "B1 RNA with G25C, G26C, C27G, C28A, G31C", "DNA 1": "CAATCTGAATTCCGGTCTCCC", "DNA 2": "TGGTGGCTACGACGGGATT"}, "B18": {"name": "CGCGAUA (DNA:RNA)", "RNA": "B1 RNA with G25C, C28G, G29A, G30U, G31A", "DNA 1": "CAATCTGAATTCCGGTCTCCC", "DNA 2": "TGGTGGCTACGACGGGATT"}, "B19": {"name": "CUUAUAU (DNA:RNA)", "RNA": "B8 RNA with U25C, A26U, G27U, U28A, A29U, A31U", "DNA 1": "CAATCTGAATTCCGGTCTCCC", "DNA 2": "TGGTGGCTACGACGGGATT"}, "B20": {"name": "UCCAAUA (DNA:RNA)", "RNA": "B8 RNA with A26C, G27C, U28A, A30U", "DNA 1": "CAATCTGAATTCCGGTCTCCC", "DNA 2": "TGGTGGCTACGACGGGATT"}, "B21": {"name": "UUAGAUC (DNA:RNA)", "RNA": "B8 RNA with A26U, G27A, U28G, A30U, A31C", "DNA 1": "CAATCTGAATTCCGGTCTCCC", "DNA 2": "TGGTGGCTACGACGGGATT"}, "B22": {"name": "AUGCAGC (DNA:RNA)", "RNA": "B1 RNA with G25A, G26U, C27G, G29A, G31C", "DNA 1": "CAATCTGAATTCCGGTCTCCC", "DNA 2": "TGGTGGCTACGACGGGATT"}, "B23": {"name": "ACUCGCU (DNA:RNA)", "RNA": "B1 RNA with G25A, G26C, C27U, G30C, G31U", "DNA 1": "CAATCTGAATTCCGGTCTCCC", "DNA 2": "TGGTGGCTACGACGGGATT"}, "B24": {"name": "GCUAUAA (DNA:RNA)", "RNA": "B8 RNA with U25G, A26C, G27U, U28A, A29U", "DNA 1": "CAATCTGAATTCCGGTCTCCC", "DNA 2": "TGGTGGCTACGACGGGATT"}, "B25": {"name": "GGAGCAU (DNA:RNA)", "RNA": "B1 RNA with C27A, C28G, G29C, G30A, G31U", "DNA 1": "CAATCTGAATTCCGGTCTCCC", "DNA 2": "TGGTGGCTACGACGGGATT"}, "B26": {"name": "UCUUGUC (DNA:RNA)", "RNA": "B8 RNA with A26C, G27U, A29G, A30U, A31C", "DNA 1": "CAATCTGAATTCCGGTCTCCC", "DNA 2": "TGGTGGCTACGACGGGATT"}, "B27": {"name": "UGUGGAA (DNA:RNA)", "RNA": "B8 RNA with A26G, G27U, U28G, A29G", "DNA 1": "CAATCTGAATTCCGGTCTCCC", "DNA 2": "TGGTGGCTACGACGGGATT"}, "B28": {"name": "GGAUGAA (DNA:RNA)", "RNA": "B1 RNA with C27A, C28U, G30A, G31A", "DNA 1": "CAATCTGAATTCCGGTCTCCC", "DNA 2": "TGGTGGCTACGACGGGATT"}, "B29": {"name": "GUCUGCU (DNA:RNA)", "RNA": "B1 RNA with G26U, C28U, G30C, G31U", "DNA 1": "CAATCTGAATTCCGGTCTCCC", "DNA 2": "TGGTGGCTACGACGGGATT"}, "B30": {"name": "CUCUUUA (DNA:RNA)", "RNA": "B8 RNA with U25C, A26U, G27C, A29U, A30U", "DNA 1": "CAATCTGAATTCCGGTCTCCC", "DNA 2": "TGGTGGCTACGACGGGATT"}, "B31": {"name": "CCUUCUA (DNA:RNA)", "RNA": "B8 RNA with U25C, A26C, G27U, A29C, A30U", "DNA 1": "CAATCTGAATTCCGGTCTCCC", "DNA 2": "TGGTGGCTACGACGGGATT"}},
  "note": "Substitutions are numbered along the chain they refer to; changes in the protein carry UniProt numbers. Some of the results follow.",
  "data": [
    {"molecular_target": "T1, RBFOX1 RRM (Homo sapiens, UniProt Q9NWB1 109-208)", "T1 sequence": "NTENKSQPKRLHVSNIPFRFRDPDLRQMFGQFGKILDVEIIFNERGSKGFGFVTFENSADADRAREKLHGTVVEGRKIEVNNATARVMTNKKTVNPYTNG", "assay": "EMSA; HiTS-Eq, 1 nM pool, 10 min; buffer printed only for the single-RNA assays: 10 mM Tris pH 7.5, 150 mM NaCl, 3.4 mM EDTA, 0.001% NP-40, 30 C", "conditions": "tags: His6 N-terminal (pET28a); label: 5' 32P", "summary_of_the_method": "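Purified RbFox RRM, wild type or mutant, was incubated for 10 min in 50 µL with 1 nM of a 5′-radiolabelled RNA pool carrying 7 randomized nucleotides, whose flanks were annealed to DNA oligonucleotides, over a series of increasing protein concentrations. Unbound RNA was resolved on 8% native PAGE, cut out, reverse-transcribed, barcoded by PCR and sequenced on an Illumina HiSeq 2500. Relative association constants were derived from changes in read counts for each RNA species versus the control reaction and normalised to the cognate motif.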", "values": [
      {"binder": "B1", "binding signal": "0.012 KA relative to UGCAUGU"},
      {"binder": "B2", "binding signal": "0.00601 KA relative to UGCAUGU"},
      {"binder": "B3", "binding signal": "0.0347 KA relative to UGCAUGU"},
      {"binder": "B4", "binding signal": "0.0252 KA relative to UGCAUGU"},
      {"binder": "B5", "binding signal": "0.0149 KA relative to UGCAUGU"},
      {"binder": "B6", "binding signal": "0.00734 KA relative to UGCAUGU"},
      {"binder": "B7", "binding signal": "0.00577 KA relative to UGCAUGU"},
      {"binder": "B8", "binding signal": "0.00712 KA relative to UGCAUGU"},
      {"binder": "B9", "binding signal": "0.0166 KA relative to UGCAUGU"},
      {"binder": "B10", "binding signal": "0.0277 KA relative to UGCAUGU"},
      {"binder": "B11", "binding signal": "0.0175 KA relative to UGCAUGU"},
      {"binder": "B12", "binding signal": "0.00791 KA relative to UGCAUGU"},
      {"binder": "B13", "binding signal": "0.01 KA relative to UGCAUGU"},
      {"binder": "B14", "binding signal": "0.0231 KA relative to UGCAUGU"},
      {"binder": "B15", "binding signal": "0.0136 KA relative to UGCAUGU"},
      {"binder": "B16", "binding signal": "0.0216 KA relative to UGCAUGU"},
      {"binder": "B17", "binding signal": "0.018 KA relative to UGCAUGU"},
      {"binder": "B18", "binding signal": "0.00807 KA relative to UGCAUGU"},
      {"binder": "B19", "binding signal": "0.00214 KA relative to UGCAUGU"},
      {"binder": "B20", "binding signal": "0.00192 KA relative to UGCAUGU"},
      {"binder": "B21", "binding signal": "0.0111 KA relative to UGCAUGU"},
      {"binder": "B22", "binding signal": "0.00756 KA relative to UGCAUGU"},
      {"binder": "B23", "binding signal": "0.00463 KA relative to UGCAUGU"},
      {"binder": "B24", "binding signal": "0.00546 KA relative to UGCAUGU"},
      {"binder": "B25", "binding signal": "0.0166 KA relative to UGCAUGU"},
      {"binder": "B26", "binding signal": "0.017 KA relative to UGCAUGU"},
      {"binder": "B27", "binding signal": "0.011 KA relative to UGCAUGU"},
      {"binder": "B28", "binding signal": "0.0174 KA relative to UGCAUGU"},
      {"binder": "B29", "binding signal": "0.0263 KA relative to UGCAUGU"},
      {"binder": "B30", "binding signal": "0.00317 KA relative to UGCAUGU"},
      {"binder": "B31", "binding signal": "0.0036 KA relative to UGCAUGU"}
    ]}
  ]
}
